# Results taken from the supplement of paper PMC8728848.
# The list shows a part of the results.
# B1: MGL6A (Homo sapiens) (protein)
# chain: MTRTYENFQYLENKVKVQGFKNGPLPLQSLLQRLCSGPCHLLLSLGLGLLLLVIICVVGFQNSKFQRDLVTLRTDFSNFTSNTVAEIQALTSQGSSLEETIASLKAEVEGFKQERQAVHSEMLLRVQQLVQDLKKLTCQVATLNNNGEEASTEGTCCPVNWVEHQDSCYWFSHSGMSWAEAEKYCQLKNAHLVVINSREEQNFVQKYLGSAYTWMGLSDPEGAWKWVDGTDYATGFQNWKPGQPDDWQGHGLGGGEDCAHFTPDGRWNDDVCQRPYHWVCEAGLGQTSQESH
# Legend:
# Assay in all cases: glycan array binding signal (z-score within array); higher = stronger binding
# Conditions in all cases: glycan notation: IUPAC condensed, linker removed; mutation: H262T
# [1] = target: Gal(b1-4)GlcNAc(b1-6)Gal(b1-4)GlcNAc
# In short: (§1)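 From the Consortium for Functional Glycomics database, 3228 arrays were curated, keeping only those whose protein sequence was available. Binding is given as a within-array Z-score averaged across arrays sharing a protein sequence and across linkers. Negative Z-scores can be read as non-binding.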
# [2] = target: Gal(b1-4)GlcNAc(b1-6)GalNAc
# In short: as §1
# [3] = target: Gal(b1-4)GlcNAc(b1-6)[Gal(b1-3)]GalNAc
# In short: as §1
# [4] = target: Gal(b1-4)GlcNAc(b1-6)[Gal(b1-4)GlcNAc(b1-3)]GalNAc
# In short: as §1
# [5] = target: Gal(b1-4)GlcNAc6P
# In short: as §1
# [6] = target: Gal(b1-6)Gal
# In short: as §1
# [7] = target: Gal3S(b1-3)GalNAc
# In short: as §1
# [8] = target: Gal3S(b1-3)GlcNAc
# In short: as §1
# [9] = target: Gal3S(b1-3)[Fuc(a1-4)]GlcNAc
# In short: as §1
# [10] = target: Gal3S(b1-4)Glc
# In short: as §1
# [11] = target: Gal3S(b1-4)Glc6S
# In short: as §1
# [12] = target: Gal3S(b1-4)GlcNAc
# In short: as §1
# [13] = target: Gal3S(b1-4)[Fuc(a1-3)]Glc6S
# In short: as §1
# [14] = target: Gal3S(b1-4)[Fuc(a1-3)]GlcNAc
# In short: as §1
# [15] = target: Gal3S(b1-4)[Fuc(a1-3)]GlcNAc6S
# In short: as §1
# [16] = target: Gal3S4S(b1-4)GlcNAc
# In short: as §1
# [17] = target: Gal3S6S(b1-4)GlcNAc
# In short: as §1
# [18] = target: Gal3S6S(b1-4)GlcNAc6S
# In short: as §1
# [19] = target: Gal4S(b1-4)GlcNAc
# In short: as §1
# [20] = target: Gal4S6S(b1-4)GlcNAc
# In short: as §1
# [21] = target: Gal6P(b1-4)GlcNAc
# In short: as §1
# [22] = target: Gal6S(b1-3)GlcNAc
# In short: as §1
# [23] = target: Gal6S(b1-3)GlcNAc6S
# In short: as §1
# [24] = target: Gal6S(b1-4)Glc
# In short: as §1
# [25] = target: Gal6S(b1-4)Glc6S
# In short: as §1
# [26] = target: Gal6S(b1-4)GlcNAc
# In short: as §1
# [27] = target: Gal6S(b1-4)GlcNAc6S
# In short: as §1
# [28] = target: GalNAc(a1-3)Gal
# In short: as §1
# [29] = target: GalNAc(a1-3)GalNAc
# In short: as §1
# [30] = target: GalNAc(a1-3)GalNAc(b1-3)Gal(a1-4)Gal(b1-4)Glc
# In short: as §1
# [31] = target: GalNAc(a1-3)GalNAc(b1-3)Gal(a1-4)Gal(b1-4)GlcNAc
# In short: as §1
# [32] = target: GalNAc(b1-3)Gal
# In short: as §1
# [33] = target: GalNAc(b1-3)Gal(a1-4)Gal(b1-4)GlcNAc
# In short: as §1
# [34] = target: GalNAc(b1-3)Gal(a1-4)Gal(b1-4)GlcNAc(b1-3)Gal(b1-4)Glc
# In short: as §1
# [35] = target: GalNAc(b1-3)Gal(a1-6)Gal(b1-4)Glc
# In short: as §1
# [36] = target: GalNAc(b1-3)GalNAc
# In short: as §1
# [37] = target: GalNAc(b1-3)GlcNAc
# In short: as §1
# [38] = target: GalNAc(b1-4)Gal(b1-4)Glc
# In short: as §1
binder,measurement,setting,value
B1,glycan array binding signal (z-score),[1],-0.172
same,glycan array binding signal (z-score),[2],3.65
same,glycan array binding signal (z-score),[3],-0.17
same,glycan array binding signal (z-score),[4],-0.172
same,glycan array binding signal (z-score),[5],-0.172
same,glycan array binding signal (z-score),[6],-0.171
same,glycan array binding signal (z-score),[7],-0.163
same,glycan array binding signal (z-score),[8],-0.208
same,glycan array binding signal (z-score),[9],-0.172
same,glycan array binding signal (z-score),[10],-0.173
same,glycan array binding signal (z-score),[11],-0.172
same,glycan array binding signal (z-score),[12],-0.172
same,glycan array binding signal (z-score),[13],-0.167
same,glycan array binding signal (z-score),[14],-0.171
same,glycan array binding signal (z-score),[15],-0.176
same,glycan array binding signal (z-score),[16],-0.177
same,glycan array binding signal (z-score),[17],-0.168
same,glycan array binding signal (z-score),[18],-0.166
same,glycan array binding signal (z-score),[19],-0.177
same,glycan array binding signal (z-score),[20],-0.178
same,glycan array binding signal (z-score),[21],-0.174
same,glycan array binding signal (z-score),[22],-0.175
same,glycan array binding signal (z-score),[23],-0.191
same,glycan array binding signal (z-score),[24],-0.173
same,glycan array binding signal (z-score),[25],-0.173
same,glycan array binding signal (z-score),[26],-0.175
same,glycan array binding signal (z-score),[27],-0.175
same,glycan array binding signal (z-score),[28],1.07
same,glycan array binding signal (z-score),[29],-0.169
same,glycan array binding signal (z-score),[30],-0.167
same,glycan array binding signal (z-score),[31],-0.173
same,glycan array binding signal (z-score),[32],2.79
same,glycan array binding signal (z-score),[33],0.263
same,glycan array binding signal (z-score),[34],0.461
same,glycan array binding signal (z-score),[35],2.76
same,glycan array binding signal (z-score),[36],-0.161
same,glycan array binding signal (z-score),[37],0.976
same,glycan array binding signal (z-score),[38],-0.171
